Measured values reported in patent publication US6544989B2, “Benzazoles: benzoxazole, benzthiazole and benzimidazole derivatives” (Syngenta Limited, priority 1998, dated 2003).

Assays:
Conditions in all cases: 500 ppm by weight; mortality assessed usually between three and five days after treatment
[1] = test system: Myzus persicae; experiment: Pesticidal test, Myzus persicae mortality
Experimental: (§1) The test procedure adopted with regard to each pest, except nematodes, was essentially the same and composed supporting a number of the pests on a medium which was usually a substrate, a host plant or a foodstuff on which the pests feed, and treating either or both the medium and the pests with a composition. Pest mortality was assessed usually between three and five days after treatment Knockdown of housefly (Musca domestica) was assessed 15 minutes after treatment

[2] = test system: Heliothis virescens
Experimental: as §1

[3] = test system: Tetranychus urticae
Experimental: as §1

[4] = test system: Musca domestica
Experimental: as §1

Cc1nc2cc(CC(=O)Nc3snc(C)c3Br)ccc2o1 [2(A4)]
MYZUPE = Myzus persicae, grading of mortality (score) [1]: 5 (5 indicates 40-79% mortality)
HELIVI = Heliothis virescens, grading of mortality (score) [2]: 0 (0 indicates less than 40% mortality)
TETRUR = Tetranychus urticae, grading of mortality (score) [3]: 0 (0 indicates less than 40% mortality)
MUSCDO AK = Musca domestica (kill), grading of mortality (score) [4]: 5 (5 indicates 40-79% mortality)

CCCc1nc2cc(CC(=O)Nc3snc(C)c3Cl)ccc2s1 [4(A13)]
MYZUPE = Myzus persicae, grading of mortality (score) [1]: 9 (9 indicates 80-100% mortality)
HELIVI = Heliothis virescens, grading of mortality (score) [2]: 0 (0 indicates less than 40% mortality)
TETRUR = Tetranychus urticae, grading of mortality (score) [3]: 9 (9 indicates 80-100% mortality)
MUSCDO AK = Musca domestica (kill), grading of mortality (score) [4]: 9 (9 indicates 80-100% mortality)

COCc1nc2cc(CC(=O)Nc3snc(C)c3Cl)ccc2o1 [130(A3)]
MYZUPE = Myzus persicae, grading of mortality (score) [1]: 9 (9 indicates 80-100% mortality)
HELIVI = Heliothis virescens, grading of mortality (score) [2]: 0 (0 indicates less than 40% mortality)
TETRUR = Tetranychus urticae, grading of mortality (score) [3]: 5 (5 indicates 40-79% mortality)

Cc1nsc(NC(=O)Cc2ccc3oc(Cc4c(F)c(F)c(F)c(F)c4F)nc3c2)c1Cl [239(A3)]
MYZUPE = Myzus persicae, grading of mortality (score) [1]: 9 (9 indicates 80-100% mortality)
HELIVI = Heliothis virescens, grading of mortality (score) [2]: 0 (0 indicates less than 40% mortality)
TETRUR = Tetranychus urticae, grading of mortality (score) [3]: 0 (0 indicates less than 40% mortality)

COc1ccccc1-c1nc2cc(CC(=O)Nc3snc(C)c3Cl)ccc2o1 [305(A3)]
MYZUPE = Myzus persicae, grading of mortality (score) [1]: 0 (0 indicates less than 40% mortality)
HELIVI = Heliothis virescens, grading of mortality (score) [2]: 0 (0 indicates less than 40% mortality)
TETRUR = Tetranychus urticae, grading of mortality (score) [3]: 0 (0 indicates less than 40% mortality)

Cc1nsc(NC(=O)Cc2ccc3oc(CSc4ccccc4)nc3c2)c1Cl [173(A3)]
MYZUPE = Myzus persicae, grading of mortality (score) [1]: 0 (0 indicates less than 40% mortality)
HELIVI = Heliothis virescens, grading of mortality (score) [2]: 0 (0 indicates less than 40% mortality)
TETRUR = Tetranychus urticae, grading of mortality (score) [3]: 0 (0 indicates less than 40% mortality)

Cc1nsc(NC(=O)Cc2ccc3oc(-c4ccc([N+](=O)[O-])cc4Cl)nc3c2)c1Cl [267(A3)]
MYZUPE = Myzus persicae, grading of mortality (score) [1]: 5 (5 indicates 40-79% mortality)
HELIVI = Heliothis virescens, grading of mortality (score) [2]: 0 (0 indicates less than 40% mortality)
TETRUR = Tetranychus urticae, grading of mortality (score) [3]: 0 (0 indicates less than 40% mortality)

Cc1nsc(NC(=O)Cc2ccc3oc(C(F)(F)F)nc3c2)c1Cl [75(A3)]
MYZUPE = Myzus persicae, grading of mortality (score) [1]: 9 (9 indicates 80-100% mortality)
HELIVI = Heliothis virescens, grading of mortality (score) [2]: 0 (0 indicates less than 40% mortality)
TETRUR = Tetranychus urticae, grading of mortality (score) [3]: 0 (0 indicates less than 40% mortality)

Cc1nsc(NC(=O)Cc2ccc3oc(C4(C)CCCCC4)nc3c2)c1Cl [36(A3)]
MYZUPE = Myzus persicae, grading of mortality (score) [1]: 5 (5 indicates 40-79% mortality)
HELIVI = Heliothis virescens, grading of mortality (score) [2]: 0 (0 indicates less than 40% mortality)
TETRUR = Tetranychus urticae, grading of mortality (score) [3]: 9 (9 indicates 80-100% mortality)

Cc1nsc(NC(=O)Cc2ccc3oc(-c4ccccc4Cl)nc3c2)c1Cl [253(A3)]
MYZUPE = Myzus persicae, grading of mortality (score) [1]: 5 (5 indicates 40-79% mortality)
HELIVI = Heliothis virescens, grading of mortality (score) [2]: 0 (0 indicates less than 40% mortality)
TETRUR = Tetranychus urticae, grading of mortality (score) [3]: 0 (0 indicates less than 40% mortality)

Cc1nsc(NC(=O)Cc2ccc3oc(C(F)(F)C(F)(F)Cl)nc3c2)c1Cl [86(A3)]
MYZUPE = Myzus persicae, grading of mortality (score) [1]: 5 (5 indicates 40-79% mortality)
HELIVI = Heliothis virescens, grading of mortality (score) [2]: 0 (0 indicates less than 40% mortality)
TETRUR = Tetranychus urticae, grading of mortality (score) [3]: 5 (5 indicates 40-79% mortality)

Cc1nsc(NC(=O)Cc2ccc3oc(-c4cccnc4Cl)nc3c2)c1Cl [343(A3)]
MYZUPE = Myzus persicae, grading of mortality (score) [1]: 5 (5 indicates 40-79% mortality)
HELIVI = Heliothis virescens, grading of mortality (score) [2]: 0 (0 indicates less than 40% mortality)
TETRUR = Tetranychus urticae, grading of mortality (score) [3]: 0 (0 indicates less than 40% mortality)

Cc1nc2cc(CC(=O)Nc3snc(C)c3C#N)ccc2o1 [2(A5)]
MYZUPE = Myzus persicae, grading of mortality (score) [1]: 5 (5 indicates 40-79% mortality)
HELIVI = Heliothis virescens, grading of mortality (score) [2]: 0 (0 indicates less than 40% mortality)
TETRUR = Tetranychus urticae, grading of mortality (score) [3]: 0 (0 indicates less than 40% mortality)

Cc1nsc(NC(=O)Cc2ccc3oc(-c4ccccc4F)nc3c2)c1Cl [272(A3)]
MYZUPE = Myzus persicae, grading of mortality (score) [1]: 0 (0 indicates less than 40% mortality)
HELIVI = Heliothis virescens, grading of mortality (score) [2]: 0 (0 indicates less than 40% mortality)
TETRUR = Tetranychus urticae, grading of mortality (score) [3]: 0 (0 indicates less than 40% mortality)

Cc1nsc(NC(=O)Cc2ccc3oc(C(C)Cl)nc3c2)c1Cl (racemic) [93(A3)]
MYZUPE = Myzus persicae, grading of mortality (score) [1]: 0 (0 indicates less than 40% mortality)
HELIVI = Heliothis virescens, grading of mortality (score) [2]: 0 (0 indicates less than 40% mortality)
TETRUR = Tetranychus urticae, grading of mortality (score) [3]: 0 (0 indicates less than 40% mortality)

Cc1nsc(N(CC(F)(F)F)C(=O)Cc2ccc3oc(CC(C)(C)C)nc3c2)c1Cl [15(H3)]
MYZUPE = Myzus persicae, grading of mortality (score) [1]: 9 (9 indicates 80-100% mortality)
HELIVI = Heliothis virescens, grading of mortality (score) [2]: 0 (0 indicates less than 40% mortality)
TETRUR = Tetranychus urticae, grading of mortality (score) [3]: 0 (0 indicates less than 40% mortality)

Cc1nsc(NC(=O)Cc2ccc3oc(C4CC4)nc3c2)c1Cl [21(A3)]
MYZUPE = Myzus persicae, grading of mortality (score) [1]: 5 (5 indicates 40-79% mortality)
HELIVI = Heliothis virescens, grading of mortality (score) [2]: 0 (0 indicates less than 40% mortality)
TETRUR = Tetranychus urticae, grading of mortality (score) [3]: 0 (0 indicates less than 40% mortality)

Cc1nsc(NC(=O)Cc2ccc3oc(-c4cccs4)nc3c2)c1Cl [330(A3)]
MYZUPE = Myzus persicae, grading of mortality (score) [1]: 0 (0 indicates less than 40% mortality)
HELIVI = Heliothis virescens, grading of mortality (score) [2]: 0 (0 indicates less than 40% mortality)
TETRUR = Tetranychus urticae, grading of mortality (score) [3]: 0 (0 indicates less than 40% mortality)

Cc1nsc(NC(=O)Cc2ccc3oc(CC(C)(C)C)nc3c2)c1C#N [15(A5)]
MYZUPE = Myzus persicae, grading of mortality (score) [1]: 0 (0 indicates less than 40% mortality)
HELIVI = Heliothis virescens, grading of mortality (score) [2]: 0 (0 indicates less than 40% mortality)
TETRUR = Tetranychus urticae, grading of mortality (score) [3]: 5 (5 indicates 40-79% mortality)

CCc1nsc(NC(=O)Cc2ccc3oc(CC(C)(C)C)nc3c2)c1Cl [15(A8)]
MYZUPE = Myzus persicae, grading of mortality (score) [1]: 9 (9 indicates 80-100% mortality)
HELIVI = Heliothis virescens, grading of mortality (score) [2]: 5 (5 indicates 40-79% mortality)
TETRUR = Tetranychus urticae, grading of mortality (score) [3]: 9 (9 indicates 80-100% mortality)
